From the supplement of paper PMC8674133

B1: C1329 (protein)
chain 1: EVQLVQSGAEVKKPGESLKISCKGSGYSFTNYWIGWVRQMPGKGLEWMGIIYPGDSDTRYSPSFQGQVTMSADKSINTAYLQWSSLRASDTAMYYCARPVGDYPMRHFDYWGQGTLVTVSS
chain 2: SYELTQPPSVSVAPGKTARIPCGGNNIGIKSVQWYQQKPGQAPVLVIYGDSGRPSGIPDRFSGSNSGNTATLTISRVEAGDEADYYCQVWDSNSDHYVFGAGTKVTVL
B2: C1359 (protein)
chain 1: EVQLVESGGGLIQPGGSLRLSCAASGFTVSSNYMSWVRQAPGKGLEWVSIIYSGGSTFYADSVKGRFTISRDSSKNTLYLQINSLRAEDTAVYYCARDVPRNSGGYWGQGTLVTVSS
chain 2: IRMTQSPSSLSASVGDRVTITCQASQDISNYLNWYQQKPGKAPKLLIYDASNLETGVPSRFSGSGSGTDFTFTISSLQPEDIATYYCQQYDNLPITFGQGTRLEIK
B3: C2464 (protein)
chain 1: VQLVESGGGVVQPGRSLRLSCAASGFTFSIYPLHWVRQTPGTGLEWVAAISFDGTHKHYRDSVKGRFTISRDNSKNTLYLQMDSLRAEDTAVYYCVSLITMIRGVPDCWGQGTLVTVSS
chain 2: DIQLTQSPSSLSASVGDRLTITCRTSQNISNYLNWYQQKPGRAPKLLIYAASSLQSGVPSRFSASGSGTGFTLSINNLQPEDFATYFCQQSHSIPITFGQGTRLEIK
B4: C1317 (protein)
chain 1: EVQLVQSGAEVKKPGESLKISCKGSGYSFTSCWIGWVRQMPGKGLEWMGIIYPGDSDTRYSPSFQGQVTISADRSISTAYLEWSSLKASDTAMYYCARSETYVIPPDYWGQGTLVTVSS
chain 2: QSVLTQPPSASGTPGQRVTISCSGSSSNIGSNAVNWYQQLPGTAPKLLIYNNDERPSGVPDRFSGSKSGTSASLAIGGLQSEDEADYSCAAWDDSLNGWVFGGGTKLTVL
B5: C1364 (protein)
chain 1: EVQLVQSGAEVKKPGESLKISCKGSGYSFTSYWIAWVRRMPGKGLEWMGIIYPGDSETRYSPSFQGQVTISADKSISTAYLQWSSLEASDTAMYYCARQYCGGDCPFDYWGQGTLVTVSS
chain 2: EIVLTQSPGTLSLSPGERATLSCRASQSVSSSYLAWYQQKPGLAPRLLIYDTSNRATGIPDRFSGSGSGTDFTLTISRLEPEDFAVYYCQQYGSSKFTFGPGTKVDIK
B6: C1326 (protein)
chain 1: EVQLVESGGGLIQPGGSLRLSCAASGLTVSSNYMTWVRQAPGKGLEWVSVIYSGGSTFYADSVKGRFTISRDTSKNTLYLQMNSLRAEDTAVYYCARDLAAAGAFDIWGQGTMVTVSS
chain 2: DIQMTQSPSSLSASVGDRVTITCRASQGISNSLAWYQQKPGKAPKLLLYAASRLESGVPSRFSGSGSGTDYTLTISSLQPEDFATYYCQQYYSTLPYTFGQGTKLEIK
B7: C1321 (protein)
chain 1: EVQLVESGGGLVQPGGSLRLSCAASGIIVSSNYMSWVRQAPGKGLEWVSIIYSGGSTFYADSVKGRFTISRDNSKNTLYLQMNSLRAEDTAVYYCARDRGGFIDYWGQGTLVTVSS
chain 2: DIQMTQSPSSLSASVGDRVTITCRASQGISNYLAWYQQKPGKVPKLLIYAASTLQSGVPSRFSGSGSGTDFTLTISSLQPEDVATYYCQKYNSAPPWTFGQGTKVEIK
B8: C1369 (protein)
chain 1: QVQLVQSGAEVKKPGSSVKVSCKASGGTFSSYTISWVRQAPGQGLEWMGRIIPILGITNYAQKFQGRVTITADKSTSTAYMELSSLRSEDTAVYYCARDPRPLVPAAINYGMDVWGQGTTVTVSS
chain 2: DIVMTQSPLSLPVTPGEPASISCRSSQSLLQSNGNNYLDWYLQKPGQSPQLLIYLGSHRASGVPDRFSGSGSGTDFTLKISRVEAEDVGVYYCMQALQTPPLTFGGGTKVEIK
B9: C1322 (protein)
chain 1: EVQLVESGGGLVQPGGSLRLSCAASGFTFSSYDMHWVRQSTGKGLEWVAAIGTAGDTYYPDSVKGRFTISRENAKKSLYLQMHSLRAGDTAVYYCARDVGGYWYFDLWGRGTLVTVSS
chain 2: DIQLTQSPSSLSASLGDRVTITCRASQTIFSYLNWYQQKPGKAPKLLIYAASSLQSGVPSRFGGSGSGTDFTLTISSLQPEDFATYYCQQSYSTPPITFGQGTRLEIK
B10: C1358 (protein)
chain 1: EVQLVESGGGLVQPGGSLRLSCAASGFTFSDYDMHWVRQAPGKGLEWVSAIGTAGDTYYPDSVKGRFTISRENAKNSLYLQMNSLRAGDTAVYYCARVNYDSSSFYMFFDYWGQGSLVTVSS
chain 2: B9 chain 2 with L15V, T28S, F30G, K45N, A50T, G63S, T74I, T94F, I97Y, R104K
B11: C1324 (protein)
chain 1: EVQLVESGGGLVQPGGSLRLSCAASGFAFSTYDMHWVRQATGKGLEWVSAIGTSGDTYYSDSVKGRFTISREDAKNSLYLQMNSLRAGDTAVYYCARGDSWNSYFYVFDVWGQGTTVTVSS
chain 2: B9 chain 2 with L15V, T28S, F30G, S31T, G63S, Y87S, T94S, I97W, R104K, L105V
B12: C1320 (protein)
chain 1: EVQLVESGGGLVQPGRSLRLSCAASGFTFDDYAMHWVRQAPGKGLEWVSGISWNSGIIGYADSVKGRFTISRDNAKNSLYLQMNSLRAEDTALYYCAKDKIHSSWYGEEAGDFDYWGQGTLVTVSS
chain 2: QSALTQPASVSASPGQSITISCTGTSSDVGGYNFVSWYQQHPGKAPKLMIYEVTNRPSGVSNRFSGSKSGNTASLTISGLQAEDEADYYCSSYTSSSAVLFGGGTKLTVL
B13: C1331 (protein)
chain 1: EVQLVESGGGLVQPGGSLRLSCAASGFTFSTYDMHWVRQVIGKGLEWVSGIGTSGDTYYSDSVKGRFTISRENAKKSVFLQMNSLRAGDTAVYYCARAVDSSSWHSNWYFDLWGRGTLVTVSS
chain 2: DIVMTQSPDSLAVSLGERATINCKSSQSVLYKSDNKNFLAWYQQKPGQPPKLLIYWASTRESGVPDRFSGSGSGTDFTLTISSLQAEDVAVYYCQQYYTTPMITFGQGTRLEIK
B14: C1328 (protein)
chain 1: EVQLVESGGGLVQPGRSLRLSCAASGFTFDDYAMHWVRQAPGKGLEWVSGISWNSVSIDYADSVKGRFTISRDNAKNSLYLQMNSLRAEDTALYYCAKSARLPGDYFDYWGQGTLVTVSS
chain 2: SYELTQPPSVSVAPGKTARITCGGDYIGSKSVHWYQQKPGQAPVLVIYDDSDRPSGIPERFSGSNSGNTATLTISRVEAGDEADYYCQVWDSTSNHPGVVFGGGTKLTVL
B15: C2466 (protein)
chain 1: EVQLVESGGGLVKPGGSHRLSCAASGFTFSYAWMSWVRQAPGKGLEWVGRIKMKTDGGTADYAAPVKGRFTISRDDSKSTLYLQMNSLKTEDTAVYYCTTTSDYGDYSPVYWGQGTLVTVSS
chain 2: DIQLTQSPSSLSASVGDRVTITCRASQSIASYLNWYQQKPGKAPKLLIYAASNLQSGVPSSFSGSGSGTHFTLTITSLQPADFAIYYCQQSYSFPLTFGGGTKVEIK
B16: C1330 (protein)
chain 1: QVQLVQSGAEVKKPGASVKVSCKVSGYSLTELSMHWVRQAPGKGLEWMGGFDPEDGETIYAQKFQGRVTMTEDTSTDTAYMELSSLRSEDTAVYYCATVLISMIRGGEYHMNVWGQGTTVTVSS
chain 2: SYELTQPPSVSVSPGQTARITCSGDAFPNQYAYWYQQQPGQAPVLVIYKDSERPSGIPERISGSSSGTTVTLTINGVRAEDEADYYCQSADSSGVIFGGGTKLTVL

Target: SARS-CoV-2 Wuhan-Hu-1 spike pseudovirus
Assay: pseudovirus neutralization IC50; higher = weaker neutralization
Description: (§1)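 Single-round luciferase reporter pseudovirus mixed with antibody dilutions and put on 293T-ACE2 cells for 48 h; signal relative to no-antibody wells, four-parameter fit.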

Binder	pseudovirus neutralization IC50
B1	0.208 µg/mL
B2	0.0256 µg/mL
B3	0.00465 µg/mL
B4	0.345 µg/mL
B5	0.556 µg/mL
B6	0.00672 µg/mL
B7	0.0122 µg/mL
B8	0.00175 µg/mL
B9	> 1 µg/mL
B10	> 1 µg/mL
B11	> 1 µg/mL
B12	0.0211 µg/mL
B13	> 1 µg/mL
B14	0.407 µg/mL
B15	> 1 µg/mL
B16	0.481 µg/mL

Target: SARS-CoV-2 Wuhan-Hu-1 spike pseudovirus
Assay: pseudovirus neutralization IC90; higher = weaker neutralization
Description: as §1

Binder	pseudovirus neutralization IC90
B1	> 1 µg/mL
B2	0.128 µg/mL
B3	0.0125 µg/mL
B4	> 1 µg/mL
B5	> 1 µg/mL
B6	0.0606 µg/mL
B7	0.113 µg/mL
B8	0.0292 µg/mL
B9	> 1 µg/mL
B10	> 1 µg/mL
B11	> 1 µg/mL
B12	0.149 µg/mL
B13	> 1 µg/mL
B14	> 1 µg/mL
B15	> 1 µg/mL
B16	> 1 µg/mL

Target: SARS-CoV-2 Wuhan-Hu-1 spike receptor-binding domain
Assay: ELISA binding EC50; higher = weaker binding; ELISA of recombinant human antibody on coated antigen, from 10 µg/ml in fourfold dilutions; four-parameter fit.

Binder	ELISA binding EC50
B1	0.00189 µg/mL
B2	0.00273 µg/mL
B3	0.00171 µg/mL
B4	0.00262 µg/mL
B5	0.00129 µg/mL
B6	0.00251 µg/mL
B7	0.00173 µg/mL
B8	0.00144 µg/mL
B9	0.00168 µg/mL
B10	0.0026 µg/mL
B11	0.00233 µg/mL
B12	0.00135 µg/mL
B13	0.0024 µg/mL
B14	0.00244 µg/mL
B15	0.00179 µg/mL
B16	0.00306 µg/mL

Residue numbers refer to the chain shown, from its start. Recombinant human monoclonal antibodies (heavy:light variable regions). ELISA EC50 on the named antigen, from 10 µg/ml down; IC50 / IC90 against spike pseudovirus on 293T-ACE2 cells, 48 h; lower = stronger. Calls: IC50 above 1,000 ng/ml = non-neutralizing; EC50 above 2,000 ng/ml = non-binder. The source prints 1000 for neutralization that was not reached; it is given as >1000 ng/ml. A few antibodies were first reported in earlier work of the same group.
